This is one part of the list.
What was measured:
Assay in all cases: glycan array binding signal (z-score within array); higher = stronger binding
Conditions in all cases: glycan notation: IUPAC condensed, linker removed
[1] = target: Fuc(a1-2)Gal(b1-4)GlcNAc(b1-2)[Fuc(a1-2)Gal(b1-4)GlcNAc(b1-4)]Man(a1-3)[Fuc(a1-2)Gal(b1-4)GlcNAc(b1-2)Man(a1-6)]Man(b1-4)GlcNAc(b1-4)GlcNAc
In short: (§1)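 The Consortium for Functional Glycomics database supplied 3228 glycan arrays, of which those lacking an available protein sequence were dropped. The binding signal, a within-array Z-score, was averaged across arrays of the same protein sequence and across linkers. Negative scores can be read as non-binding.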

[2] = target: Fuc(a1-2)Gal(b1-4)GlcNAc(b1-3)Gal(b1-4)GlcNAc
In short: as §1

[3] = target: Fuc(a1-2)Gal(b1-4)GlcNAc(b1-3)Gal(b1-4)GlcNAc(b1-2)Man(a1-3)[Fuc(a1-2)Gal(b1-4)GlcNAc(b1-3)Gal(b1-4)GlcNAc(b1-2)Man(a1-6)]Man(b1-4)GlcNAc(b1-4)GlcNAc
In short: as §1

[4] = target: Fuc(a1-2)Gal(b1-4)GlcNAc(b1-3)Gal(b1-4)GlcNAc(b1-3)Gal(b1-4)GlcNAc
In short: as §1

[5] = target: Fuc(a1-2)Gal(b1-4)GlcNAc(b1-3)GalNAc
In short: as §1

[6] = target: Fuc(a1-2)Gal(b1-4)GlcNAc(b1-3)[Fuc(a1-2)Gal(b1-4)GlcNAc(b1-6)]GalNAc
In short: as §1

[7] = target: Fuc(a1-2)Gal(b1-4)GlcNAc(b1-3)[Fuc(a1-3)[Gal(b1-4)]GlcNAc(b1-6)]Gal(b1-4)Glc
In short: as §1

[8] = target: Fuc(a1-2)Gal(b1-4)GlcNAc(b1-6)GalNAc
In short: as §1

[9] = target: Fuc(a1-2)Gal(b1-4)GlcNAc6S
In short: as §1

[10] = target: Fuc(a1-2)Gal(b1-4)[Fuc(a1-3)]GlcNAc
In short: as §1

[11] = target: Fuc(a1-2)Gal(b1-4)[Fuc(a1-3)]GlcNAc(b1-2)Man(a1-3)[Fuc(a1-2)Gal(b1-4)[Fuc(a1-3)]GlcNAc(b1-2)Man(a1-6)]Man(b1-4)GlcNAc(b1-4)GlcNAc
In short: as §1

[12] = target: Fuc(a1-2)Gal(b1-4)[Fuc(a1-3)]GlcNAc(b1-2)Man(a1-3)[Fuc(a1-2)Gal(b1-4)[Fuc(a1-3)]GlcNAc(b1-2)Man(a1-6)]Man(b1-4)GlcNAc(b1-4)[Fuc(a1-6)]GlcNAc
In short: as §1

[13] = target: Fuc(a1-2)Gal(b1-4)[Fuc(a1-3)]GlcNAc(b1-2)[Fuc(a1-2)Gal(b1-4)[Fuc(a1-3)]GlcNAc(b1-4)]Man(a1-3)[Fuc(a1-2)Gal(b1-4)[Fuc(a1-3)]GlcNAc(b1-2)Man(a1-6)]Man(b1-4)GlcNAc(b1-4)GlcNAc
In short: as §1

[14] = target: Fuc(a1-2)Gal(b1-4)[Fuc(a1-3)]GlcNAc(b1-3)Gal(b1-4)[Fuc(a1-3)]GlcNAc
In short: as §1

[15] = target: Fuc(a1-2)Gal(b1-4)[Fuc(a1-3)]GlcNAc(b1-3)Gal(b1-4)[Fuc(a1-3)]GlcNAc(b1-3)Gal(b1-4)[Fuc(a1-3)]GlcNAc
In short: as §1

[16] = target: Fuc(a1-2)Gal(b1-4)[Fuc(a1-3)]GlcNAc(b1-3)GalNAc
In short: as §1

[17] = target: Fuc(a1-2)Gal(b1-4)[Fuc(a1-3)]GlcNAc(b1-3)[Neu5Ac(a2-6)Gal(b1-4)GlcNAc(b1-6)]Gal(b1-4)Glc
In short: as §1

[18] = target: Fuc(a1-2)Gal3S(b1-4)GlcNAc
In short: as §1

[19] = target: Fuc(a1-2)Gal6S(b1-3)GlcNAc
In short: as §1

[20] = target: Fuc(a1-2)Gal6S(b1-3)GlcNAc6S
In short: as §1

Fuc(a1-2)Gal6S(b1-4)Glc = target: Fuc(a1-2)Gal6S(b1-4)Glc
In short: as §1

[21] = target: Fuc(a1-2)Gal6S(b1-4)Glc6S
In short: as §1

[22] = target: Fuc(a1-2)Gal6S(b1-4)GlcNAc
In short: as §1

Fuc(a1-2)[Gal(a1-3)]Gal = target: Fuc(a1-2)[Gal(a1-3)]Gal
In short: as §1

[23] = target: Fuc(a1-2)[Gal(a1-3)]Gal(b1-3)GalNAc
In short: as §1

[24] = target: Fuc(a1-2)[Gal(a1-3)]Gal(b1-3)GalNAc(b1-3)Gal(a1-4)Gal(b1-4)Glc
In short: as §1

[25] = target: Fuc(a1-2)[Gal(a1-3)]Gal(b1-3)GlcNAc
In short: as §1

[26] = target: Fuc(a1-2)[Gal(a1-3)]Gal(b1-3)GlcNAc(b1-2)Man(a1-3)[Fuc(a1-2)[Gal(a1-3)]Gal(b1-3)GlcNAc(b1-2)Man(a1-6)]Man(b1-4)GlcNAc(b1-4)GlcNAc
In short: as §1

[27] = target: Fuc(a1-2)[Gal(a1-3)]Gal(b1-3)GlcNAc(b1-2)Man(a1-3)[Fuc(a1-2)[Gal(a1-3)]Gal(b1-3)GlcNAc(b1-2)Man(a1-6)]Man(b1-4)GlcNAc(b1-4)[Fuc(a1-6)]GlcNAc
In short: as §1

[28] = target: Fuc(a1-2)[Gal(a1-3)]Gal(b1-3)GlcNAc(b1-3)GalNAc
In short: as §1

B1: AAL (Agrocybe aegerita), Q6WY08 (protein)
chain: MQGVNIYNISAGTSVDLAAPVTTGDIVTFFSSALNLNAGAGNPNNTTLNLFAENGAYLLHIAFRLQENVIIFNSRQPDGPWLVEQRVSDVANQFAGIDGKAMVTVFDHGDKYQVVINEKTVIQYTKQISGLTLSLSYNATEETSIFSTVVEAVTYTGLALEHHHHHH
Which “glycan array binding signal (z-score)” value [1] does the source give for B1 here?
The value was -0.119.

And the “glycan array binding signal (z-score)” value [2]?
Its value is -0.138.

And the “glycan array binding signal (z-score)” value [3]?
Its value is -0.083.

What about the “glycan array binding signal (z-score)” value [4] of the same binder?
Its value is -0.159.

What about the “glycan array binding signal (z-score)” value [5] of the same binder?
The value was -0.145.

And the “glycan array binding signal (z-score)” value [6]?
The value was -0.079.

And the “glycan array binding signal (z-score)” value [7]?
The value was -0.149.

What about the “glycan array binding signal (z-score)” value [8] of the same binder?
The value was -0.116.

And the “glycan array binding signal (z-score)” value [9]?
The value was -0.134.

And the “glycan array binding signal (z-score)” value [10]?
The value was -0.147.

What about the “glycan array binding signal (z-score)” value [11] of the same binder?
The value was -0.15.

And the “glycan array binding signal (z-score)” value [12]?
The value was -0.118.

What about the “glycan array binding signal (z-score)” value [13] of the same binder?
Its value is -0.101.

What about the “glycan array binding signal (z-score)” value [14] of the same binder?
The value was -0.152.

What about the “glycan array binding signal (z-score)” value [15] of the same binder?
Its value is -0.144.

What about the “glycan array binding signal (z-score)” value [16] of the same binder?
Its value is -0.139.

What about the “glycan array binding signal (z-score)” value [17] of the same binder?
Its value is -0.107.

And the “glycan array binding signal (z-score)” value [18]?
The value was -0.147.

And the “glycan array binding signal (z-score)” value [19]?
The value was -0.124.

And the “glycan array binding signal (z-score)” value [20]?
The value was -0.107.

And the “glycan array binding signal (z-score)” value (Fuc(a1-2)Gal6S(b1-4)Glc)?
Its value is -0.153.

And the “glycan array binding signal (z-score)” value [21]?
Its value is -0.143.

And the “glycan array binding signal (z-score)” value [22]?
Its value is -0.157.

And the “glycan array binding signal (z-score)” value (Fuc(a1-2)[Gal(a1-3)]Gal)?
The value was -0.145.

And the “glycan array binding signal (z-score)” value [23]?
Its value is -0.029.

What about the “glycan array binding signal (z-score)” value [24] of the same binder?
The value was -0.097.

And the “glycan array binding signal (z-score)” value [25]?
Its value is -0.126.

What about the “glycan array binding signal (z-score)” value [26] of the same binder?
The value was -0.158.

What about the “glycan array binding signal (z-score)” value [27] of the same binder?
The value was -0.119.

And the “glycan array binding signal (z-score)” value [28]?
Its value is -0.119.

Source: the supplement of paper PMC8728848
